Among the data in the RNAGym collection of RNA variant scans (doi:10.1093/nar/gkz1192) are self-cleavage values, retold here.

The labels stand for the following.
B1: CPEB3 Ribozyme (parent)
chain: UAACAGGGGGCCACAGCAGAAGCGUUCACGUCGCAGCCCCUGUCAGAUUCUGGUGAAUCUGCGAAUUCUGCUGUAUAUCUC

Read counts are not given, so values of variants with three or more changes are uncertain.

The series covers variants of B1. Briefly: self-cleavage, relative activity (ratio to wild type); higher = more cleavage; in vitro, sequencing. An outline of the steps:
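After error-prone PCR and barcoding, CPEB3 ribozyme mutant libraries were transcribed with T7 RNA polymerase at 37°C for 5 hours, then given 15 min with DNase I before an EDTA stop, and they cleaved during both steps. Reverse transcription with template switching preceded Illumina sequencing. Relative activity divides a variant's cleaved/total read fraction by the unmutated ribozyme's. At least 5 reads were required per variant, and three batches were averaged.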
Consider UAACAGGGGGCCACAGCAGAAGCGUUCACGACGCAACCCCUGUCAGAUUCUGGUGAAUCCGCGAAUUCUGCCGUAUAUCUC [U31A G36A U60C U72C], for which the self-cleavage came out at 0.16.

On to UAACAGGGGGCCACAGCAGAAGCGUUCACGACGCAGCUACUGUCAGAUUCUGGUGAAUCUGCGAAUUCCGCUGUAUAUCUC [U31A C38U C39A U69C], for which the self-cleavage was determined as 0.18. The figure for UAACAGGGGGCCACAGCAGAAGCGUUCACGACGCAUCCCCUGUCAGAUUCCGGUGAAUCCGCGAAUUCUGCUGUAUAUCUC [U31A G36U U51C U60C] is 0.08; for UAACAGGGGGCCACAGCAGAAGCGUUCACGACGCAGCCCCUGUCAGAUUCUGAUGAAUCUGCGAUUUCUGCUGUAUAUCUC [U31A G53A A65U] it is 0.18; for UAACAGGGGGCCACAGCAGAAGCGUUCACGACGUAGCCCCUGUCAGAUUCAGGUGAAUCUGCGAAUUCUGCUGUAUAUCUC [U31A C34U U51A] it is 0.59. For the variant UAACAGGGGGCCACAGCAGAAGCGUUCACGACGCAGCCCCGGUCGGAUUCUGGUGAAUCUGCGAAUUCUGCUGUAUAUCUC [U31A U41G A45G], the self-cleavage came to 0.13. As for UAACAGGGGGCCACAGCAGAAGCGUUCACGACGCAGACCCUGUCAGGUUCUGGUGGAUCUGCGUAUUCUGCUGUCUAUCCC [U31A C37A A47G A56G A64U A75C U80C], the self-cleavage is 0.09.

In the case of UAACAGGGGGCCACAGCAGAAGCGUUCACGACGCAGCCCCGGUCAGAUUCUGGUGAAUCAGCGAACCCUGCUGAAUAUCUC [U31A U41G U60A U66C U67C U74A], the self-cleavage stood at 0.08. For the variant UAACAGGGGGCCACAGCAGAAGCGUUCACGACGCAGCCCCGGUCAGACUCUGGUGAAUCUGCGAAUCCUGCUGUAUAUCUC [U31A U41G U48C U67C], the self-cleavage amounted to 0.05. For the variant UAACAGGGGGCCACAGCAGAAGCGUUCACGACGCAUCCCCCGUCAGAUUCUGGCGAAUCGGCGAAUUCUGCUGUAUAUCCC [U31A G36U U41C U54C U60G U80C], the self-cleavage amounted to 0.09. The value for UAACAGGGGGCCACAGCAGAAGCGUUCACGACGCAGCCCCUGUCAGAUUCAGGUGAAUCUGCGAAUUCUGCUGUACAUCUC [U31A U51A U76C] was 0.66; that for UAACAGGGGGCCACAGCAGAAGCGUUCACGACGCAGCCGCUGUCAGUUUCUGGUGAAACUGCGAAUUCUGCUGUAUUUCUC [U31A C39G A47U U58A A77U] was 0.06. For UAACAGGGGGCCACAGCAGAAGCGUUCACGACGCAGCCCCAGUCAGAUCCUGGUGAAUCUGCGAAUUCUGCCGUAUAUCUC [U31A U41A U49C U72C], the self-cleavage was determined as 0.16. On to UAACAGGGGGCCACAGCAGAAGCGUUCACGACGCAGCCCCUGUCAGUUUCUGGUGAAUCUGCGAACUCUGUUGUAUAUCUC [U31A A47U U66C C71U], for which the self-cleavage stood at 0.16. The value for UAACAGGGGGCCACAGCAGAAGCGUUCACGACGCAGCCCCCGUCAGAUUCCGGUGAAUCUGCGAAUUCUGCUGUAUAUCUC [U31A U41C U51C] was 0.29. The value for UAACAGGGGGCCACAGCAGAAGCGUUCACGACGCAGCCCCCGUCAGACUCUGGUGAACCUGCGAAUGCUGCUGUAUAUCUC [U31A U41C U48C U58C U67G] was 0.03; that for UAACAGGGGGCCACAGCAGAAGCGUUCACGACGCAGCCCCUGUCAGGUUCUGGUGAAUCUGCGAAUUCAGCUGUAUAUCUC [U31A A47G U69A] was 0.1. As for UAACAGGGGGCCACAGCAGAAGCGUUCACGACGCAGCCCCUGUCAGAUCCUGGCGAAUCUGCGAACUCUGCCGUAUAUCUC [U31A U49C U54C U66C U72C], the self-cleavage was found to be 0.09. Regarding UAACAGGGGGCCACAGCAGAAGCGUUCACGACGCAGCCCCUGUCAGCUCCUGGUGAAUCUGCGGAUUCUGCUAUAUAUCUC [U31A A47C U49C A64G G73A], the self-cleavage was 0.08. On to UAACAGGGGGCCACAGCAGAAGCGUUCACGACGCAGCCCCCGUCAGAUUCUGGCGAAUCUGCGAAUUCUGCUGUAUGUCUC [U31A U41C U54C A77G], for which the self-cleavage was 0.58. Consider UAACAGGGGGCCACAGCAGAAGCGUUCACGACGCAGCCCCUGCCAGAUACUGGUGAAUCUGCGAAUUCUGCUGUAUAUCUC [U31A U43C U49A], for which the self-cleavage was found to be 0.24. With UAACAGGGGGCCACAGCAGAAGCGUUCACGAAGUAGCCCCGGUCAGAUUCUGGUGAAUCUGCGAAUUCUGCUGUAUAUCUC [U31A C32A C34U U41G], the self-cleavage came to 0.1. Regarding UAACAGGGGGCCACAGCAGAAGCGUUCACGAUGCAGCCCCUGUCAGAUUCUGGUGAAUCUGCGAAUUCCGCUGUAUAUCUC [U31A C32U U69C], the self-cleavage stood at 0.37. Turning to UAACAGGGGGCCACAGCAGAAGCGUUCACGACGGAGCCCCUGUCAGAUUCUGGUGUAUCUGCGAAUUCUGCUGUAUAUCUC [U31A C34G A56U], the self-cleavage was 0.12. The value for UAACAGGGGGCCACAGCAGAAGCGUUCACGACGCAGCCCCUAUCAGAUUCUGCUGAAUCUGCGAAUUCUGCCGUAUAUCCC [U31A G42A G53C U72C U80C] was 0.28.

Turning to UAACAGGGGGCCACAGCAGAAGCGUUCACGACGCAGCCCCUGUCAGAUUCAGGUGGAUCAGCGAAUUCUGCUGUAUAUCUC [U31A U51A A56G U60A], the self-cleavage came to 0.2. UAACAGGGGGCCACAGCAGAAGCGUUCACGACGCAGCCCCUGUCAGAUUCUGGUGAAUCUGCGGAUUCUGCUGGAUAUCUC [U31A A64G U74G]: the self-cleavage was determined as 0.85.

Consider UAACAGGGGGCCACAGCAGAAGCGUUCACGACGCAGCCCCCGUCAGAUUCUGGUGGAUCUGCGAAUUCUGCUGUACAACUC [U31A U41C A56G U76C U78A], for which the self-cleavage was determined as 0.3. The figure for UAACAGGGGGCCACAGCAGAAGCGUUCACGACGAAGCCCCUGUCAGAUUCUGGCGUACCUGCGAAUUCUGCUGUAUAUCUC [U31A C34A U54C A56U U58C] is 0.16; for UAACAGGGGGCCACAGCAGAAGCGUUCACGACGCAGCCCCUGUCAGAUUCUGGUGUAACUGCGAAUUCUGCGGUAUACCUC [U31A A56U U58A U72G U78C] it is 0.1. Regarding UAACAGGGGGCCACAGCAGAAGCGUUCACGACGCAGCCCCUAUCAGACUCCGGUGAAUCUGCGAAUUCUGCUGAAUAUCUC [U31A G42A U48C U51C U74A], the self-cleavage came out at 0.08. In the case of UAACAGGGGGCCACAGCAGAAGCGUUCACGACGCAGCCCCUGUCAGAUUCUGGUGAAUCUGCGUAUUCUGCUGUAUGUCUC [U31A A64U A77G], the self-cleavage amounted to 0.09. As to UAACAGGGGGCCACAGCAGAAGCGUUCACGACGCAGCCGUUGUCAGAUUCUGGUGAAUCUGCGGAUUCGGCUGUAUAUCUC [U31A C39G C40U A64G U69G], the self-cleavage is 0.07. With UAACAGGGGGCCACAGCAGAAGCGUUCACGACGCAGCCCCUGUCAGGUUCUGGUGAGUCUGCGAAUUCUGCUGUAUAUCUC [U31A A47G A57G], the self-cleavage was 0.4.
